Results from the RNAGym collection of RNA variant scans (doi:10.7554/elife.90254).
Read counts are not given, so values of variants with three or more changes are uncertain.

B1: LINE1-mini (parent)
chain: GGCAGAGCUCAACACAGCGUGGCAAAGUGGCUGUGGCUAGACUGCC

Variants of: B1
Test: self-cleavage, relative activity (ratio to wild type); higher = more cleavage; in vitro, sequencing; the parent is a self-cleaving ribozyme

Row | Variant | self-cleavage
1 | C3A U9G G29C G33A C46A | 0.04
2 | C10A G22C G27U U34G | 0
3 | C10A A14G C15G G17U C18U A25G G30A | 0.01
4 | G2A A6U C37U U38A | 0.4
5 | C3A A16C G35U G44A | 0.14
6 | C13G A24G G29A C31A A41C C46G | 0.02
7 | G17A C37A A39U | 0.07
8 | C15U A24U A25C | 0.4
9 | C3G A4G A26U | 0.23
10 | A4U A11C C23G G35U | 0.04
11 | G7C C23U A24C | 0.08
12 | G7C G33U A39C | 0
13 | G2C C3U A16C U34C G36U G44C | 0.04
14 | G2C A39C C45A | 0.01
15 | A11C G27A G29U C31A | 0
16 | U9A C37A C45G | 0.11
17 | G2A C13U G36U U38C | 0.14
18 | G7A G17U C46A | 0.08
19 | C18U G21C U32A A39C | 0.09
20 | G5U A11G U20A A25U | 0.02
21 | A4U A16G C45G | 0.03
22 | C15U C23A C31U U32C G40A G44U | 0
23 | G5C C10G G21C | 0.01
24 | U9A A16C G21U U28C U43C | 0.01

Row | Variant | self-cleavage
25 | G1C U9A A24U G30A A41C | 0.02
26 | A12U G29U U38A C46U | 0.09
27 | C18U G22U A25G | 1.11
28 | G5C U20C G29U C45G | 0.02
29 | C15A G30A G33C | 0.01
30 | C8A G22A A25G A26C | 0.16
31 | G5U C13U G36U | 0.04
32 | G2A A6G G7A A24G G40C C45A | 0.25
33 | C15A G29C G36C | 0.12
34 | G5C C18A C31G | 0.03
35 | U9C A16G G19U G27U G36A | 0.01
36 | G2U C3A A6C C15U G17U C31U | 0.08
37 | G1C A12G G35U | 0.01
38 | A26G G40C C45U | 0.04
39 | A6C G36A C42G | 0.01
40 | G5C U20C C45G | 0.04
41 | A14C G22C U32A | 0.02
42 | U34C C37A G40A | 0.02
43 | C3A U9G G29U | 0.57
44 | U9C A12G A14C C18A A24U G30U C37A | 0.03
45 | A4C C23G G35A G36U A39C | 0.26
46 | G7C C10A A39G | 0.01
47 | G1C G27A C37U C42A | 0.04
48 | A4C A6G C18G U43C | 0.02

Row | Variant | self-cleavage
49 | C10A A25C G35C C37A | 0.01
50 | C3U G22C A39G | 0.07
51 | G5C G7C A14C U34G A41G C42U C45U | 0.01
52 | G17U A24U U28A C42U | 0.04
53 | C18G G19A A39C C42A G44C C45G | 0.03
54 | C15A U20G G30C G36U G40U A41G | 0.02
55 | G19C G22C C23U C45G | 0.01
56 | C3U A12U A25U A26U | 0.03
57 | C10U C15A G29A G30A U34G C42U U43G | 0.01
58 | C3G G19C A26U G29U C45G C46G | 0.01
59 | C10U C15A A16U G19A | 0.07
60 | G1C C3G C37G G40C | 0.05
61 | C3A C15U G17A G30A C45A | 0.03
62 | G21A U32A G33A | 0.03
63 | G1A G7A A16U G27U G44U | 0.14
64 | A14U G22A A24C G27U C42A | 0.03
65 | G29U G30A C31G G36U | 0.15
66 | C18G A26G G30U U32A | 0.06
67 | G1A U9C G19C G22A G33A A41C C45G | 0
68 | C10A A11C G29C | 0.07
69 | C10A C15A G17U U20C | 0.03
70 | G1A A4C C8A U32G G40U U43C C46A | 0.12
71 | G7A A11U C18U U28C U34G C46U | 0.02
72 | A26U U28A G36A | 0.36

Row | Variant | self-cleavage
73 | G21C G22A G27C | 0.42
74 | U9A C31U A41C | 0.04
75 | U9C C15G G21U G27A U28G G35C C42G | 0.01
76 | A6U G30C C45G | 0.03
77 | C15U G17A G21A G29A U32G A41C | 0.02
78 | C3A A11C C23A | 0.06
79 | C13G G36C C37U C45A | 0.15
80 | G21C G30C G40A C42U | 0.04
81 | G17U G29U G36A | 0.09
82 | C8A G22U G40U | 0.27
83 | G7A C15U A41G | 0.53
84 | G21U U28C C31A | 0.33
85 | A12C G22U A24G U34G G35A | 0.01
86 | C18G G19A U34C | 0.02
87 | A12C G22U G29A A41G | 0.01
88 | A4C G7C C13U G30U C37A | 0.33
89 | G21U A25U C37A | 0.05
90 | G1C A4U C23U C37G U43G | 0
91 | C13U C18U A24U U32G | 0.04
92 | C3U A26G A41C U43G | 0.05
93 | C8U C13A G36U C45G | 0.24
94 | G7C A12U A14G G36C | 0.06
95 | C8A G17A U32A A39C U43A | 0.03
96 | C3U U9C G22U C37G | 0.06

Row | Variant | self-cleavage
97 | A6C A12G U20C G29A U38G | 0
98 | A16U G19C A25G C46G | 0.11
99 | G2C G5C C10U C23G C31U C42A | 0.01
100 | A6U C13A G29C U32G | 0.05
101 | G2C C3G U20A | 0.06
102 | A6U G22U A25U U28G G35C G36U | 0.18
103 | G29A U38C C45U | 0.36
104 | G1A U32G G44C | 0.07
105 | G5U G19C G29U | 0.27
106 | A4C A12C G21C A24C G30A C46A | 0
107 | G5U C10A G27U | 0.05
108 | U9A C31U G35C G36U C37A G40C | 0.06
109 | C10A A11C C15G G27U C45U | 0.01
110 | G17A C18A A26C | 0.35
111 | A4G C10G C15G G30U | 0
112 | G5A G7U A12U G19A G27C U32G | 0.06
113 | G2U A14G C15G G19A U20A G27C | 0.01
114 | A12G A24C A26U A39G | 0.05
115 | G19A G21U U28A | 0.79
116 | C15G U20A G40C | 0.02
117 | C15U U20G G40C | 0.02
118 | C3G C10A U38A | 0.06
119 | G1C G5A A6C | 0.1
120 | C13U U20A G33C | 0.05

Row | Variant | self-cleavage
121 | G17C C18U G29C | 0.11
122 | G2U C42U G44U | 0.07
123 | G7C C13A U20C G27C G36U | 0.02
124 | A24G C31G U32G | 0.01
125 | G7A G29C C31U G40U | 0.15
126 | A14C A16C G29U | 0.13
127 | C18U A24C G30U U38C C46G | 0.01
128 | G1U A16C G21A G22U U38A | 0.02
129 | C15G G17C G44C C45G | 0.03
130 | G5A U9A G17C C18U G35U G44A C46G | 0.03
131 | G5A G19A G29A | 0.09
132 | G2U A6G A26C G27C G35A | 0.27
133 | C13U U32G G35U | 0.01
134 | G7C A11C C23G C31U | 0.02
135 | A25U A26U C31A | 0.04
136 | A4U C42U U43G | 0.03
137 | G22U A26U G29U G30A U38C | 0.39
138 | G1U G2C G7A C18G G19C A26C C42U U43C | 0.14
139 | A11C G22C G30A | 0.07
140 | A12G A25U U28C | 0.02
141 | G7U G19C G40C | 0.3
142 | C18G G19A U38A | 1.77
143 | A4C U28A G35C A41G | 0.05
144 | U9C C10U A12U A16C A24G | 0.01

Row | Variant | self-cleavage
145 | A14G C42U C46G | 0.02
146 | A12U A26G G33A | 0.02
147 | G33U G40U C42A | 0.05
148 | C3A G17C G44C | 0.25
149 | C10U G35A G36U C37A C42A | 0.04
150 | G5U C31G A39G | 0.06
151 | A6G C15U C42G G44A | 0.02
152 | G2A C13U G21U G33C | 0.04
153 | G1A G7U G19U G22U C37U C46A | 0.02
154 | C8A U9C A12G G17C C37A | 0.02
155 | C8A C10A C18A G30U G36A C42U U43A | 0.02
156 | C31A C45G C46G | 0.07
157 | G2A G7U G40U C42U | 0.14
158 | U9C G21A A26U C45A | 0.03
159 | G5C G7A G30U C31U U32A G35A A41G | 0.02
160 | C3G G5A C13U U28C | 0.7
161 | G17A G21A G27C | 0.35
162 | G21U U32G G36U | 0.1
163 | A26U G27A C45G | 0.14
164 | A14G C23U U28A G35A A41C C46A | 0.01
165 | A12G G19A C46A | 0.01
166 | A11U A14C C37A | 0
167 | G1C G7A U9G A14G | 0.02
